Article PMC4336329 (PLoS ONE, 2015)
Among all 310,000 compounds or so, about 14,000 (4.5%) showed an effect of 50% or more. The effect is printed as a negative number. The list shows a part of the results.

target: human ether-à-go-go-related gene (hERG) potassium channel (human, UniProt Q12809); assay: primary screen, population patch clamp on CHO cells stably expressing hERG
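Note: peak tail current of the secondary pulse compared with the same well before compound.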

Chain of human ether-à-go-go-related gene (hERG) potassium channel (Q12809 whole entry, looked up): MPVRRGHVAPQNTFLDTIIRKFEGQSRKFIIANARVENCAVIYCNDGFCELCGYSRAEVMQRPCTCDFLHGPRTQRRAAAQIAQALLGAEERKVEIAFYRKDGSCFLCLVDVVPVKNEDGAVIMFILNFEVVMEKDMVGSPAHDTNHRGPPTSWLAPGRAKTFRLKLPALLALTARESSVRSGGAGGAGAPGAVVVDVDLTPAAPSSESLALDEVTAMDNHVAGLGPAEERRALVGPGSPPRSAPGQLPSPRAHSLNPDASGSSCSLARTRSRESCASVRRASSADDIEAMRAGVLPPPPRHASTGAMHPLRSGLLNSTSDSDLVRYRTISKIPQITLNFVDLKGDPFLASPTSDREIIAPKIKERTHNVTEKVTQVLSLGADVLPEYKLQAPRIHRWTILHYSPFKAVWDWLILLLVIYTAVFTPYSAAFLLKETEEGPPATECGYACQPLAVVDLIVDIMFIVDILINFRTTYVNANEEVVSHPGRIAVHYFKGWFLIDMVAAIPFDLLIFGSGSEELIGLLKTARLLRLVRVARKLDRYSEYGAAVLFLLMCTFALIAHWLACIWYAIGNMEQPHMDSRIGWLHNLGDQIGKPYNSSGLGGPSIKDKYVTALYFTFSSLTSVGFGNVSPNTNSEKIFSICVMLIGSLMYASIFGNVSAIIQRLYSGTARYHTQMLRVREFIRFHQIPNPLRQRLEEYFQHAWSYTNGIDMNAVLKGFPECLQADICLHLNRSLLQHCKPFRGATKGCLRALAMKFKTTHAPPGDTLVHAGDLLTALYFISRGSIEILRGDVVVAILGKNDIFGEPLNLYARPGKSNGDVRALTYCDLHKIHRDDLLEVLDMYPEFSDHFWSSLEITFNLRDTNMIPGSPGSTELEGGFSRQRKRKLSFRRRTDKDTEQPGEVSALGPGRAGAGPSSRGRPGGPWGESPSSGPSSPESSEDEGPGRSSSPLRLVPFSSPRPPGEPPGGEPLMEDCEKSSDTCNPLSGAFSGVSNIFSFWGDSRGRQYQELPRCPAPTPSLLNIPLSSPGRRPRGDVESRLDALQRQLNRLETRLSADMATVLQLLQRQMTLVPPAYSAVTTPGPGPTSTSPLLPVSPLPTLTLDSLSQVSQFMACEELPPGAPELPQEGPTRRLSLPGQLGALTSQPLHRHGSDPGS

Row | Structure (SMILES) | hERG current change (%, negative = inhibition) at 10uM [%]
1 | C#CCNC(=O)C1=C[C@@H](C2CC2)[C@H](CCCO)[C@@H](OCC)O1 | 26.4
2 | COc1cccc(CNC(=O)C(=O)NCC2CCCO2)c1 (centres unmarked) | -6.32
3 | CCCc1cc(C(=O)Nc2ccc(C(=O)c3ccc(F)cc3)cc2)n(C)n1 | 1.41
4 | CCc1nnc(N2C(=N)SCC2=O)s1 | 28.3
5 | O=C1[C@H]2[C@@H](C(=O)N1c1cccc3ccccc13)C1(C(=O)c3ccccc3C1=O)N1CCC[C@@H]21 | -69
6 | O=C(Nc1ccc(Br)cc1)c1cc2ccccn2n1 | -9.23
7 | CCOc1cccc2cc(-c3csc(NC(=O)CCC(=O)NCCCN4CCC(C)CC4)n3)c(=O)oc12 | -44.6
8 | CCOC(=O)C1(CCOc2ccccc2)CCN(Cc2cc(OC)cc(OC)c2)CC1 | -79.8
9 | CCN(CC1CCCN(CCc2cccc(F)c2)C1)C(=O)c1cc(C)oc1C (centres unmarked) | -66.8
10 | CN1/C(=C\C(=O)c2cccnc2)Sc2ccccc21 | 4.34
11 | COc1cc(C(=S)N2CCOCC2)cc(OC)c1OC(=O)c1ccc([N+](=O)[O-])cc1[N+](=O)[O-] | -4.69
12 | COc1ccc(NC(=O)COC(=O)[C@@H]2CCCN2C(=O)c2cccs2)c(OC)c1 | -27.5
13 | Cc1cc(F)ccc1S(=O)(=O)Nc1ccccc1C(=O)Nc1ccccc1-c1nc2ccccc2[nH]1 | 4.92
14 | CCCSc1cc(=O)n(-c2ccc(F)cc2)nc1C(=O)OCC | -3.54
15 | COc1ccc(NC(=O)CSc2nnc(-c3ccccn3)n2N)c(OC)c1 | 2.63
16 | CN(CCCCCCCCCCN(C)C(=O)Oc1cccc([N+](C)(C)C)c1)C(=O)Oc1cccc([N+](C)(C)C)c1.[Br-] | -1.08
17 | CCOC(=O)N1CCC(NS(=O)(=O)c2cc3c(cc2Cl)NC(=O)CO3)CC1 | -38.3
18 | O=C(NC1CCCCC1)c1cccnc1C(=O)O | 4.81
19 | COC(=O)c1cn(NC(=O)C2CCCO2)c(=O)c2ccccc12 (centres unmarked) | 15.5
20 | CC(=O)Oc1ccc(C(=O)NCCc2ccccc2)cc1 | 15.5
21 | Brc1ccc(CN2CC[C@H]3C=CCc4cccc(c43)C2)cc1 | 0.0241
22 | c1ccc(-n2cc(CN3CCCC3)c(-c3ccc4c(c3)OCO4)n2)cc1 | -73
23 | Cc1ccc(CSCc2ccc(C(=O)NCCCN3CCOCC3)o2)cc1 | -51.8
